Test results: PubChem BioAssay AID445 (National Center for Advancing Translational Sciences (NCATS), 2006)
Out of some 110,000 compounds screened, about 40 (0.04%) were called active. This list was built around the results that the source calls inconclusive (neither active nor inactive); the mix of calls is not that of the screen. Calls come from the whole dose curve; as a rule, active = well fitted curve in the direction sought with a large enough effect in the signal ratio (not every such curve was filed as active); inconclusive = small, poorly fitted or top-dose-only effect, or a change in a side signal; inactive = flat fitted curve, though single readings scatter; the % refers to the signal ratio. Potencies of inconclusive entries are doubtful fits and often do not repeat.

experiment: IkB Signaling; conditions: ABC-DLBCL IkBa-CBG/CBR dual luciferase ratio (green luciferase fused to IkBa over red control in OCI-Ly3 lymphoma cells), 4 h; IkBa stabilization activation: at 57.1 µM (top of the series), scaled: untreated 0%, proteasome inhibitor 100% unless noted;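 for IkBa stabilization activation: 0% = basal untreated cells and 100% = reference inhibitor full response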
How it was run: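 In this assay, an IκBα–CBG68 fusion accumulates when IKK-driven degradation is blocked; native CBR normalizes for cell number. OCI-Ly3 cells were treated 4 h with compound and doxycycline, then green and red light read after Chroma-Glo addition.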
Potency is the fitted concentration of half-maximal effect.

For `Cc1ccc(-n2c(=O)c3ccc(C(=O)NCc4ccccc4Cl)cc3n(CC(=O)Nc3ccc(C)cc3C)c2=O)cc1`, which IkBa stabilization activation is on record?
Its IkBa stabilization activation is inconclusive: -0.692% [signal inhibitor].

With `O=C(O)[C@@H](c1ccccc1)N1Cc2ccccc2C1=O` as the compound, how does the “IkBa stabilization activation” value read?
The value was inactive: 2.7%.

Which “IkBa stabilization activation” value does the source give for `CCOC(=O)Cc1csc(SCn2nnc3ccccc3c2=O)n1` here?
Its value is inactive: 2.97%.

For `Cc1cc(C)cc(C(=O)n2nc(C)c(S(=O)(=O)N3CCOCC3)c2C)c1`, which IkBa stabilization activation is on record?
Its IkBa stabilization activation is inconclusive: 6.73% [signal inhibitor].

Which “IkBa stabilization activation” value does the source give for `O=C(CSc1ncc2c(n1)-c1ccccc1N(Cc1ccc(F)cc1)S2(=O)=O)NCCc1ccccc1` here?
Its value is inactive: 0.0814%.

For `Cc1ccc(Nc2cc(C)nc3nncn23)c(C)c1`, which IkBa stabilization activation is on record?
Its IkBa stabilization activation is inconclusive: 7.52% [signal inhibitor].

With `CCCC1(C(=O)O)NC(c2cccc(OC)c2O)C2C(=O)N(c3ccccc3)C(=O)C21` (stereo not drawn) as the compound, how does the IkBa stabilization activation read?
The IkBa stabilization activation was inconclusive: 17.5% [signal inhibitor].

Which Potency does the source give for `CCOc1ccc(-c2nc3ccccc3c(=O)o2)cc1` here?
The Potency was inconclusive: 15.8 µM [signal inhibitor, partial curve].

Which IkBa stabilization activation does the source give for `COC(=O)c1c(C)[nH]c(C)c1C(=O)c1ccccc1Cc1ccccc1` here?
The IkBa stabilization activation was inconclusive: 1.24% [signal inhibitor].

For `COc1cccc(CNC(=O)Cn2nc(N3CCN(c4ccccc4OC)CC3)ccc2=O)c1`, which IkBa stabilization activation is on record?
The IkBa stabilization activation was inconclusive: -1.05% [signal inhibitor].

Which IkBa stabilization activation does the source give for `O=C(Nc1ccc(F)cc1)N(Cc1ccco1)Cc1cc2cc3c(cc2[nH]c1=O)OCO3` here?
The IkBa stabilization activation was inconclusive: -4.69% [signal inhibitor].

With `Cc1cc(C)c(C)c(OCC(=O)NCc2nc(-c3ccccc3)no2)c1` as the compound, how does the “IkBa stabilization activation” value read?
Its value is inactive: 1.61%.

For `CN1[C@@H]2CC(OC(=O)[C@@H](CO)c3ccccc3)C[C@@H]1[C@H]1O[C@H]12` (stereo partly drawn), which IkBa stabilization activation is on record?
Its IkBa stabilization activation is inactive: -2% [at 11.4 µM, scaled: untreated 0%, proteasome inhibitor 100%].

Which “IkBa stabilization activation” value does the source give for `Cc1cc(C)cc(C(=O)N2CC(=O)Nc3ccc(Br)cc3C2c2ccccc2)c1` (stereo not drawn) here?
Its value is inactive: -0.342%.

For `CCCCOc1ccc(C2C(=O)N(C3CCCCC3)CC(=O)N2CCCC)cc1` (stereo not drawn), which IkBa stabilization activation is on record?
The IkBa stabilization activation was inconclusive: 0.462% [signal inhibitor].

Which IkBa stabilization activation does the source give for `COc1cc(NS(=O)(=O)c2ccc(C)cc2C)cc(OC)c1OC` here?
Its IkBa stabilization activation is inconclusive: 4.05% [signal inhibitor].

For `COc1ccccc1CN(Cc1cc2cc(C)cc(C)c2[nH]c1=O)Cc1nnnn1CC1CCCO1` (stereo not drawn), which IkBa stabilization activation is on record?
The IkBa stabilization activation was inconclusive: 7.01% [signal inhibitor].

For `CCCc1[nH]nc2c1C(C1CC=CCC1)C(C#N)=C(N)O2` (stereo not drawn), which IkBa stabilization activation is on record?
The IkBa stabilization activation was inconclusive: -3.83% [signal inhibitor].

With `Cc1ccc(OCCOCCn2c(-c3ccc(Cl)cc3)nc3ccccc3c2=O)cc1` as the compound, how does the IkBa stabilization activation read?
Its IkBa stabilization activation is inconclusive: -0.252% [signal inhibitor].

For `CCCCOc1ccc(-c2nnn(CC(=O)Nc3ncc(CC(=O)OCC)s3)n2)cc1`, which IkBa stabilization activation is on record?
The IkBa stabilization activation was inconclusive: 5.41% [signal inhibitor].

Which “IkBa stabilization activation” value does the source give for `Cn1c(=O)c2cc(C(=O)NC3CCCCCC3)sc2c2ccccc21` here?
Its value is inactive: 0.664%.

For `CCn1c(=N)n(CC(O)COc2ccccc2)c2ccccc21` (stereo not drawn), which “IkBa stabilization activation” value is on record?
The value was inactive: -0.686%.

For `CCOC(=O)c1[nH]c2ccc(OC)cc2c1NC(=O)CN1CCC2(CC1)OCCO2`, which “IkBa stabilization activation” value is on record?
The value was inactive: -1.12%.

With `CCOc1ccc(CN2CCc3nc(N4CCN(c5ccccn5)CC4)ncc3C2)cc1OC` as the compound, how does the IkBa stabilization activation read?
Its IkBa stabilization activation is inconclusive: 6.33% [signal inhibitor].

With `COc1ccc(-c2coc3c2c(C)cc2oc(=O)c(CC(=O)O)c(C)c23)cc1` as the compound, how does the IkBa stabilization activation read?
The IkBa stabilization activation was inconclusive: -1.94% [signal inhibitor].

Which IkBa stabilization activation does the source give for `Cc1ccc2oc(-c3ccccc3)c(O)c(=O)c2c1` here?
The IkBa stabilization activation was inactive: 0.463% [at 11.4 µM, scaled: untreated 0%, proteasome inhibitor 100%].

Which IkBa stabilization activation does the source give for `Cc1cc(C)c(S(=O)(=O)Nc2ccc3oc4c(c3c2)C(=O)CC(C)(C)C4)cc1C` here?
Its IkBa stabilization activation is inconclusive: 8.05% [signal inhibitor].

For `COc1cc(OC)c(NC(=O)c2cn(C3CCCC3)c(=O)c3c2c2ccccc2n3C)cc1Cl`, which IkBa stabilization activation is on record?
Its IkBa stabilization activation is inconclusive: -0.77% [signal inhibitor].

Which IkBa stabilization activation does the source give for `COc1cc2c(cc1OC)C(COc1ccc(F)cc1)N(C(=O)c1cccc(F)c1)CC2` (stereo not drawn) here?
The IkBa stabilization activation was inconclusive: 2.27% [signal inhibitor].

Which IkBa stabilization activation does the source give for `Cc1nc2nc(SCC(=O)Nc3ccccc3Cl)nn2c(C)c1Cc1ccccc1` here?
Its IkBa stabilization activation is inconclusive: 7.09% [signal inhibitor].

With `O=C(c1ccc(Br)cc1)N(Cc1cccs1)c1ccc(F)cc1` as the compound, how does the IkBa stabilization activation read?
The IkBa stabilization activation was inconclusive: 2.06% [signal inhibitor].

For `CN1CCN(C(=O)Cn2ncc3c4ccccc4n(Cc4ccc(F)cc4)c3c2=O)CC1`, which IkBa stabilization activation is on record?
Its IkBa stabilization activation is inconclusive: 0.931% [signal inhibitor].

With `COc1ccccc1C(=O)Nc1ccc(S(=O)(=O)N2CCOCC2)cc1` as the compound, how does the “IkBa stabilization activation” value read?
Its value is inactive: -2.31%.

Which IkBa stabilization activation does the source give for `COc1cccc(C(=O)Nc2ccccc2OCc2cc(=O)n3ccccc3n2)c1` here?
The IkBa stabilization activation was inconclusive: -2.5% [signal inhibitor].

Which Potency does the source give for `Cc1cccn2c(=O)c(/C=C(\C#N)c3nc4ccccc4s3)c(Oc3ccc(F)cc3)nc12` here?
The Potency was inconclusive: 5.01 µM [signal inhibitor, single point].

With `Cc1cc(N(CCO)Cc2ccccc2)n2nc(-c3ccc(C(C)(C)C)cc3)nc2n1` as the compound, how does the IkBa stabilization activation read?
Its IkBa stabilization activation is inconclusive: 2% [signal inhibitor].

For `Cc1cc(C(=O)NCCC2=CCCCC2)c(C)o1`, which Potency is on record?
The Potency was inconclusive: 39.8 µM [rising, single point].

With `Cc1ccc(C)c(N2CCN(C(=O)c3cc(S(=O)(=O)N4CCOCC4)ccc3F)CC2)c1` as the compound, how does the IkBa stabilization activation read?
Its IkBa stabilization activation is inconclusive: 2.56% [signal inhibitor].

Which IkBa stabilization activation does the source give for `Cc1cccc(NC(=O)CNc2cc(C)ccc2C)c1` here?
Its IkBa stabilization activation is inconclusive: 2.36% [signal inhibitor].

Which IkBa stabilization activation does the source give for `Cc1ccccc1C(=O)NCCc1sc(-c2ccc(Cl)cc2)nc1C` here?
The IkBa stabilization activation was inconclusive: 1.76% [signal inhibitor].

Which “IkBa stabilization activation” value does the source give for `Cc1[nH]n2c(=O)c3c(nc2c1-c1ccc(Cl)cc1)CCC3` here?
The value was inactive: 3.22%.

Which IkBa stabilization activation does the source give for `O=C1NC2(CCCc3ccccc32)C(=O)N1Cc1nnc(-c2ccccc2Br)o1` (stereo not drawn) here?
The IkBa stabilization activation was inconclusive: 2.01% [signal inhibitor].

For `COc1ccc(C2CC(=O)N(CC(=O)Nc3ccc(C)c(Cl)c3)c3ccccc3S2)cc1OC` (stereo not drawn), which IkBa stabilization activation is on record?
Its IkBa stabilization activation is inconclusive: 7.76% [signal inhibitor].

For `COc1ccc(-c2nc(SCC(=O)NC3CCCC3)c(-c3ccc(C)cc3)[nH]2)cc1OC`, which IkBa stabilization activation is on record?
The IkBa stabilization activation was inconclusive: 10.4% [signal inhibitor].

Which IkBa stabilization activation does the source give for `COc1ccc(N(Cc2cccs2)C(=O)Nc2cccc(Cl)c2)cc1` here?
Its IkBa stabilization activation is inconclusive: -1.23% [signal inhibitor].

For `CCOc1ccc2nc(NC(=O)CSc3nnc(-c4ccncc4)n3CC3CCCO3)sc2c1` (stereo not drawn), which “IkBa stabilization activation” value is on record?
The value was inactive: -0.902%.

With `CCOC(=O)C1CCCN(S(=O)(=O)c2ccc3c(c2)oc(=O)n3C)C1` (stereo not drawn) as the compound, how does the IkBa stabilization activation read?
The IkBa stabilization activation was inconclusive: 0.359% [signal inhibitor].

Which IkBa stabilization activation does the source give for `Cc1noc(C)c1CSc1nc2ccccc2nc1NS(=O)(=O)c1ccc(Cl)cc1` here?
The IkBa stabilization activation was inconclusive: 10.9% [signal inhibitor].

Which IkBa stabilization activation does the source give for `COc1ccc(-c2cn3c(n2)sc2cc(C(=O)NCc4cccc(F)c4)ccc23)cc1` here?
The IkBa stabilization activation was inconclusive: 1.1% [signal inhibitor].

For `CCCc1cnc2c(c1SCc1cccc(F)c1)c(=O)n(C)c(=O)n2C`, which IkBa stabilization activation is on record?
The IkBa stabilization activation was inconclusive: 1.33% [signal inhibitor].

With `Cc1oc2c(cc(NS(=O)(=O)c3ccc(Cl)cc3)c3ccccc32)c1C(=O)OCc1ccccc1` as the compound, how does the IkBa stabilization activation read?
The IkBa stabilization activation was inconclusive: 10.4% [signal inhibitor].

Which IkBa stabilization activation does the source give for `COc1ccc(C2C=C(c3ccc(Br)s3)Nc3ncnn32)cc1OC` (stereo not drawn) here?
The IkBa stabilization activation was inconclusive: 4.86% [signal inhibitor].

Which “IkBa stabilization activation” value does the source give for `COc1ccc(OC)c(C(=O)COC(=O)c2c(OC)cccc2OC)c1` here?
The value was inactive: 0.221%.

With `O=S(=O)(Nc1cccc(-c2cn3ccsc3n2)c1)c1ccc(F)cc1` as the compound, how does the IkBa stabilization activation read?
Its IkBa stabilization activation is inconclusive: 3.22% [signal inhibitor].

With `Cc1noc(C)c1-c1nccc(NCc2ccccc2)n1` as the compound, how does the IkBa stabilization activation read?
The IkBa stabilization activation was inactive: 2.07% [at 11.4 µM, scaled: untreated 0%, proteasome inhibitor 100%].

For `CCc1cccc(C)c1Nc1c(-c2cccs2)nc2nc(C)cc(C)n12`, which IkBa stabilization activation is on record?
Its IkBa stabilization activation is inconclusive: -1.5% [signal inhibitor].

With `CCc1nc(N2CCC(C)CC2)c2oc3ccccc3c2n1` as the compound, how does the “IkBa stabilization activation” value read?
Its value is inactive: 5.17%.

For `O=C(CSc1nc2ccccc2nc1Cc1ccccc1F)Nc1cccc(C(F)(F)F)c1`, which Potency is on record?
Its Potency is inconclusive: 20 µM [signal inhibitor].

Which IkBa stabilization activation does the source give for `CCC(=O)Nc1ccc(CC)cc1-c1nc2ccccc2n(CC(=O)Nc2ccccc2C)c1=O` here?
Its IkBa stabilization activation is inconclusive: 2.16% [signal inhibitor].

With `COc1ccc(-c2onc(C)c2C)cc1S(=O)(=O)Nc1cc(Cl)ccc1C` as the compound, how does the “IkBa stabilization activation” value read?
Its value is inactive: 0.48%.

Which Potency does the source give for `COc1ccc(-c2cc3nc(C)c(CCC(=O)N4CCN(c5ccccc5F)CC4)c(C)n3n2)c(OC)c1` here?
The Potency was inconclusive: 0.631 µM [signal inhibitor].

With `COC(=O)C1=C(C)NC(=O)NC1c1cn(-c2ccccc2)nc1-c1cccs1` (stereo not drawn) as the compound, how does the IkBa stabilization activation read?
Its IkBa stabilization activation is inconclusive: 1.79% [signal inhibitor].

Which IkBa stabilization activation does the source give for `COc1ccccc1-c1cc(C(F)(F)F)nc(S(=O)(=O)CCCC(=O)Nc2cc(C)on2)n1` here?
Its IkBa stabilization activation is inconclusive: 3.88% [signal inhibitor].

For `CCN(CC)c1ccc(NC(=O)C2CC3CCC2C3)cc1` (stereo not drawn), which “IkBa stabilization activation” value is on record?
Its value is inactive: 0.4%.

Which IkBa stabilization activation does the source give for `COc1cc2c(cc1OC)C(COc1ccc(F)cc1)N(C(=O)Cc1ccccc1)CC2` (stereo not drawn) here?
Its IkBa stabilization activation is inconclusive: 1.06% [signal inhibitor].

With `Cc1ccc(CN2c3ccccc3-c3nc(SCC(=O)Nc4c(C)cc(C)cc4C)ncc3S2(=O)=O)cc1` as the compound, how does the “IkBa stabilization activation” value read?
The value was inactive: 0.661%.

With `CCOc1ccccc1C(=O)N1CC(=O)Nc2ccc(C)cc2C1c1ccccc1` (stereo not drawn) as the compound, how does the IkBa stabilization activation read?
Its IkBa stabilization activation is inconclusive: 1.1% [signal inhibitor].

Which “IkBa stabilization activation” value does the source give for `CCn1c(SCC(=O)N2CCCC2)nc2c1c(=O)n(C)c(=O)n2C` here?
The value was inactive: 0.0693%.
